# Laboratory results reported in the RNAGym collection of RNA variant scans (doi:10.1093/nar/gkz1192).
# Read counts are not given, so values of variants with three or more changes are uncertain.
# B1: CPEB3 Ribozyme (parent)
# chain: UAACAGGGGGCCACAGCAGAAGCGUUCACGUCGCAGCCCCUGUCAGAUUCUGGUGAAUCUGCGAAUUCUGCUGUAUAUCUC
# Variants of: B1
# Assay: self-cleavage, relative activity (ratio to wild type); higher = more cleavage; in vitro, sequencing
# Summary of the method: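 Barcoded CPEB3 ribozyme mutants, produced by rounds of error-prone PCR, self-cleaved while being transcribed with T7 RNA polymerase for 5 hours at 37°C and during a subsequent 15 min DNase I step before EDTA was added. Sequencing of template-switched cDNA on Illumina gave cleaved and total reads, and DNA sequencing assigned barcodes to variants. Each variant's relative activity is its cleaved/total read fraction divided by the unmutated ribozyme's fraction, averaged across three batches. A variant needed a minimum of 5 reads.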
row,Variant,self-cleavage
1,U26A U31C G63C,0.51
2,U26C A45G A65G U78C,0.06
3,U26C G33A U41A U54C,0.14
4,U26C A35U U41C,0.26
5,U26C A57G C62G,0.23
6,U26C G30C U41A A45U,0.32
7,U26C A45G U60C U74C,0.72
8,U26C C37U A47G U49C U60C,0.16
9,U26C A35G C40U U51C,0.6
10,U26C A28G U41A U66C U78A,0.05
11,U26A U41C U49C A56U A75U,0.21
12,U26C G36A G55U A65G U74G,0.07
13,U26A U69C U72A,0.37
14,U26C A56C U60A,0.4
15,U26C U41A A56U U58A U72C,0.29
16,U26C A28G C44U U72A,0.08
17,U26C A28G A45G U72C C79U,0.32
18,U26C A28U A45G A65G,0.15
19,U26A U48A U78C,0.17
20,U26C C32G A47U A77G,0.06
21,U26C A35G C44U U54C A57G C71U,0.13
22,U26C C68A A75G U78A,0
23,U26C A64G A75U,0.49
24,U26C C29U U31C C37U U58C U67A,0.13

row,Variant,self-cleavage
1,U26C C39U U41C,0.37
2,U26C C32U A57C,0.07
3,U26C A35G U78G,1.29
4,U26C G36A C40U U48C,0.14
5,U26C U41C U54C U67C,0.09
6,U26A U41A U49A A57G A65G U80A,0.05
7,U26A U31C U43G U51C U60C,0.07
8,U26A U41C U54C U67C,0.14
9,U26C A64U U69C,0.15
10,U26C A64G U80C,0.44
11,U26C A35G U67C,0.29
12,U26C U31G U41A A56G,0.27
13,U26C U31G A75G,0.08
14,U26C A28G G30A U48C,0.39
15,U26A U54A U60C,0.43
16,U26C G46A U54C U60C,0.23
17,U26A U43C U54C U60A A64G,0.06
18,U26A U41A C62U A64G,0.15
19,U26C A65G U72A,0.18
20,U26C G63U U78C U80C,0.42
21,U26A U31C U72A,0.56
22,U26A U41A U43G C44U A47G U54A,0.27
23,U26C G30A U58C,0.16
24,U26C U43A U51A A57G,0.1

row,Variant,self-cleavage
1,U26A U41C A47G A57G U72A U78C,0.29
2,U26C G33A U41C C81A,0.2
3,U26C U41C A45U U51A U58C U69C,0.06
4,U26C A35G U80C,1.18
5,U26C A28U A47G U67C,0.3
6,U26C U41A A64G U72C,0.23
7,U26C A56G A65U,0.14
8,U26A U41G G53C U72C,0.08
9,U26C A35C C38A,0.21
10,U26A U48C U49C,0.13
11,U26C A28U U41C,0.4
12,U26C A57U C79A,0.37
13,U26C A65G U69A A75U,0.09
14,U26A U31C A35U A45C,0.15
15,U26A U54C A65G,0.21
16,U26C C38U U41C,0.46
17,U26C A28G A56U A64U A65G U69C A75G,0.05
18,U26C G42C U72C U78G U80C,0.1
19,U26C A28G C37A,0.1
20,U26C A28G C34U U78C,0.15
21,U26C C59A U80G,0.2
22,U26C A64C U67C U80C,0.06
23,U26C G52A U74G,0.94
24,U26C A28U U78C,0.16

row,Variant,self-cleavage
1,U26A U31C U41C A65G G73C U78C,0.07
2,U26C C40A A45U A57G U60G,0.18
3,U26A U41C U72G,0.39
4,U26C A35G U51A A65G U69G,0.51
5,U26C A28U A45G,0.18
6,U26C G36U U72C,0.16
7,U26A U58C A65G U67A U72C,0.18
8,U26C G33A U58A A77G,0.05
9,U26C U41C A47G C50U,0.25
10,U26A U48A U49A A56G U60C U67C G70C,0.05
11,U26A U66C U69C,0.46
12,U26C A28G C39A,0.2
13,U26C G73A A75U U80A,1.16
14,U26C U31A A47C,0.17
15,U26A U41A A45G U60A,0.23
16,U26C G46A A47G A57G A64G U69C,0.18
17,U26C G33A A45U A64G A65G,0.23
18,U26C G63A U78C,0.3
19,U26A U43C A47U A56G,0.1
20,U26C A35U U41A U66C,0.2
21,U26C G36C C44U,0.15
22,U26C U31C C44U,0.16
23,U26A U72A U76C,0.91
24,U26C A56G A57G C81U,0.22

row,Variant,self-cleavage
1,U26C U41C A45G A47G A56U,0.08
2,U26C A35G U67C A77U C79U,0.35
3,U26C A35U U80C,0.24
4,U26A U43A U49C U74G,0.22
5,U26A U74A U78C,1.25
6,U26C U31C A35U U43C U49A A57G G73A,0.25
7,U26C A28G U31C A35U,0.11
8,U26C A45G U51A,0.27
9,U26C U41A A56G U67C U76C,0.12
10,U26C A45G U72C U78C,0.14
11,U26C U31A A47G U60G,0.06
12,U26C A45G U54C,0.51
13,U26A U78C U80A,0.9
14,U26C U31C U51C A64U,0.14
15,U26C C34U U54C U72C,0.07
16,U26C A47G G63A U69A,0.17
17,U26C U43C A57G,0.29
18,U26C A47U A75U,0.24
19,U26C A28U U67C,0.14
20,U26C G36A A45U U67C,0.02
21,U26A U49C U69A U74C U76C,0.1
22,U26C A45G U51C U69C,0.14
23,U26C C29A G46A U67A U72A,0.06
24,U26A U51C U72C,0.74

row,Variant,self-cleavage
1,U26C A47G A57U,0.2
2,U26C U41A A64U G70C U80C,0.19
3,U26C A35C U58C U80C,0.3
4,U26C A65G U80C,0.38
5,U26C A45G A56G U67A U69C,0.06
6,U26C A47G A56G A65G,0.08
7,U26C C40U U67C,0.15
8,U26A U41C A45U U48C A56G,0.08
9,U26C A56G A64G U66C,0.06
10,U26C G46A A47G U58C,0.08
11,U26C C29U U41A U54C,0.36
12,U26C A35U C40U A56G U58C,0.1
13,U26C A45G A56G A77U,0.12
14,U26C C39U A57G A65G U72G U78C,0.09
15,U26C A28G A35G A47G U67C,0.1
16,U26C A57U A64G,0.11
17,U26C U31A C68U A75G,0.06
18,U26C A35G U49C A77U,0.76
19,U26C A35U U78A,0.1
20,U26C A35G A45G A56G,0.64
21,U26A U31A U43C G55C A57G,0.12
22,U26C A56U A64U U72G,0.15
23,U26C G33U A45G U76C,0.19
24,U26C A28U A77G,0.3

row,Variant,self-cleavage
1,U26C A57G U58C U80A,0.19
2,U26A U80C C81U,1.09
3,U26C A56G U74C A75G,0.6
4,U26C A45G U60A A65G,0.25
5,U26C G52U A57G,0.43
6,U26C G73A U76A,1.13
7,U26C A45G U54A U58C,0.08
8,U26C G73U A77G,0.99
9,U26C U43A A65G U67C,0.15
10,U26C A28U U69C U80C,0.15
11,U26C A35G A45U U54C,0.79
12,U26C C39A U60C,0.28
13,U26A U41C U51C A57G,0.35
14,U26C A35G U49A U60A U72A,0.18
15,U26C C29G A64G,0.14
16,U26A U31C A35U U43C,0.38
17,U26A U43A A45G C59G,0.11
18,U26A U49C A65U A75U,0.12
19,U26C A35U U43G,0.14
20,U26A U49C A65G,0.07
21,U26C C38U C44G C59G,0.08
22,U26C A28U A35U U48C,0.06
23,U26C A47G G73A U76A,0.76
